# Data from PubChem BioAssay AID686971 (National Center for Advancing Translational Sciences (NCATS), 2013).
# The campaign covered roughly 360,000 compounds. About 7,500 (2.1%) were called active. Inconclusive results, whose numbers are uncertain, are shown with a selection of clear calls. Calls come from the whole dose curve; as a rule, active = well fitted cell-killing curve with a large enough effect; inconclusive = small, poorly fitted or top-dose-only effect, or effect the other way, or another doubt; inactive = no such curve, though single readings can be large or run the other way. No potency is given beside an inconclusive call; the fits are too rough.
# Assay: qHTS for induction of synthetic lethality in tumor cells producing 2HG: qHTS for the HT-1080-IDH1KD cell line;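 for activity, negative = toxicity: 0% = DMSO wells and -100% = cell-free medium wells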
# Details: HT-1080 IDH1 knockdown viability, ATP luminescence, 48 h; activity, negative = toxicity: at 46.1 µM (top of the series) unless noted
# Procedure, shortened: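 Cytotoxicity counter-line: IDH1KD HT-1080, 48 h, CellTiter-Glo. Curves classed by r2, magnitude and activity.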
# Potency is the fitted concentration of half-maximal effect; tags give direction and shape of the fitted curve.
Compound,Potency,"activity, negative = toxicity"
O=C(NNC(=O)c1ccccc1OCc1ccccc1Cl)c1csc(N2CCOCC2)n1,"inconclusive [cytotoxic, partial curve]",
CCN1CCc2c(sc(NC(=O)c3ccc(S(=O)(=O)N(CC)c4ccccc4)cc3)c2C(N)=O)C1,active: 5.8 µM,
O=C(CN1CCN(Cc2ccccc2)CC1)Nc1ccccc1,inactive,
COc1cccc(Nc2nnc(SCC(=O)N(CC(C)C)CC(C)C)s2)c1,inactive,
COc1ccccc1OCC(=O)c1[nH]c(C)c(C(C)=O)c1C,"inconclusive [cytotoxic, single point]",
Cc1cc(C)c(NC(=O)CSc2nc3c(c(=O)n2C)SC(C)C3)c(C)c1 (centres undefined),inactive,
O=C(Nc1ccc2c(c1)OCCO2)C(c1ccncc1)n1c(=O)c(-c2cc3ccccc3[nH]2)nc2ccccc21 (centres undefined),"inconclusive [cytotoxic, single point]",
O=C1c2ccccc2C(=O)c2c1cccc2N1CCN(CCO)CC1,"inconclusive [cytotoxic, single point]",
O=C(Nc1cccc(Cl)c1)c1ccc2sc([C@H]3C[C@H](O)[C@@H](CO)O3)nc2c1,"inconclusive [cytotoxic, partial curve, poor fit]",
O=C(c1ccco1)N1N=C(c2cccs2)CC1c1ccccc1O (centres undefined),"inconclusive [cytotoxic, single point]",
CCOC(=O)c1cnc(SCC(=O)Nc2cc(OC)cc(OC)c2)nc1N,"inconclusive [cytotoxic, partial curve]",
Cc1cccc(-c2cccc(NC(=O)C3CCCN(C(=O)c4csc(C)n4)C3)c2)c1 (centres undefined),"inconclusive [cytotoxic, partial curve]",
Cc1ccc2nc(C3CCN(CC(=O)Nc4ccc5c(c4)OCCO5)CC3)[nH]c2c1,"inconclusive [cytotoxic, single point]",
CC(C)N(c1ccccc1)c1ccc(NC(=S)NCCN(C)C)cc1,active: 20.6 µM,
C1CCC(CNc2c3c(nc4nnnn24)CCCC3)CC1,inactive,
COc1ccc(C(=O)Nc2nc(-c3ccccn3)cs2)cc1S(=O)(=O)N1CCOCC1,"inconclusive [cytotoxic, partial curve]",
O=c1[nH]nc(Cc2ccc(Cl)cc2Cl)c2ccccc12,inactive,
CCOc1cc(/C=C2\N=C(SC(C)C(N)=O)N(c3ccc(OC(F)F)cc3)C2=O)ccc1O (centres undefined),"inconclusive [cytotoxic, full curve]",
O=[N+]([O-])c1ccc(NC(=S)NCCc2ccccc2)cc1,"inconclusive [cytotoxic, single point]",
O=C(NNC(=O)c1cc(-c2ccc(Cl)c(Cl)c2)nc2ccccc12)Nc1ccccc1,"inconclusive [cytotoxic, single point]",
COCCN(Cc1ccccc1)C(=O)c1cccc(S(=O)(=O)N2CCCc3ccccc32)c1,inactive,
Nc1ccc(Nc2ccccc2N)cc1,"inconclusive [cytotoxic, single point]",
O=C(c1ccc([N+](=O)[O-])o1)N1CCc2ccccc21,"inconclusive [cytotoxic, partial curve]",

Compound,Potency,"activity, negative = toxicity"
Cc1ccc(-n2nc3c(=O)n(CCCC(=O)NCc4cccc(Cl)c4)nc(C)c3c2C)cc1,"inconclusive [cytotoxic, partial curve]",
CCNc1c2c3c(cccc3n(C)c1=O)C(=O)c1ccccc1-2,inactive,
Cc1cccc(CN2CCc3c([nH]c4ccccc34)C2CC(C)C)n1 (centres undefined),"inconclusive [cytotoxic, single point]",
CCOC(=O)C1CCN(C(=O)Cc2ccc(OC)c(OC)c2)CC1,inactive,
O=C(/C=C/c1ccc2c(c1)OCO2)Nc1ccc(Cl)cn1,"inconclusive [cytotoxic, full curve, poor fit]",
Cc1cc(F)ccc1NCC(=O)Nc1ccc(Br)cc1C,"inconclusive [cytotoxic, partial curve]",
COc1ccc(-c2cnc(N)nc2-c2ccc(OCc3ccccc3)cc2O)cc1,"inconclusive [cytotoxic, single point]",
C=Cn1ccnc1CC(O)c1ccc(OC)cc1 (centres undefined),inactive,
C=CCn1c(SCc2c(C(=O)OC)sc(N)c2C(=O)OC)nnc1-c1ccc(Cl)cc1,"inconclusive [cytotoxic, single point]",
CN(C)CCCNC(=O)C[C@H]1C[C@H](C(=O)N2CCCCC2)[C@@]2(CCc3ccccc3)c3[nH]c4cc(CCC(=O)N(C)C)ccc4c3CCN2C1=O,inactive,
CCN(CC)S(=O)(=O)c1ccc(N2CCN(C)CC2)c(NC(=O)c2cc(=O)c3ccccc3o2)c1,inactive,
COc1ccc(OC)c(-c2csc(N(Cc3ccco3)C(=O)c3ccco3)n2)c1,"inconclusive [cytotoxic, full curve]",
COC(=O)C1=C(N)Oc2cc(C)n(CCN3CCOCC3)c(=O)c2C1c1cccnc1 (centres undefined),inactive,
c1ccc(OCCNc2ccn3nc(-c4ccc(OCCN5CCOCC5)cc4)cc3n2)cc1,"inconclusive [cytotoxic, single point]",
CN(C)S(=O)(=O)c1ccc(C(=O)Nc2nc(-c3cc4ccccc4o3)cs2)cc1,"inconclusive [cytotoxic, partial curve]",
CCS(=O)(=O)Nc1ccc(C2=NN(S(=O)(=O)c3ccc(F)cc3)C(c3ccco3)C2)cc1 (centres undefined),"inconclusive [cytotoxic, single point]",
COc1ccccc1CNC(=O)C(NS(=O)(=O)c1ccc2c(c1)oc(=O)n2C)C(C)C (centres undefined),inactive,
O=C(/C=C/c1ccc(Cl)cc1)c1cccnc1,"inconclusive [cytotoxic, single point]",
Cn1cccc1/C=N/NC(=O)c1cc(-c2cccs2)nc2ccccc12,"inconclusive [cytotoxic, partial curve]",
Cc1cccc(C(C)(C)C)c1OCCCCN1CCCC1,"inconclusive [cytotoxic, single point]",
CC(C)c1cc(C(=O)OCC(=O)NC2CCS(=O)(=O)C2)c(O)c(C(C)C)c1 (centres undefined),inactive,
Cc1ccc(C)c(OCCC(=O)Nc2ccc(S(=O)(=O)N3CCCC3)cc2)c1,"inconclusive [cytotoxic, partial curve]",
O=C(Nc1ccc2snnc2c1)Nc1cccc2ccccc12,"inconclusive [cytotoxic, single point]",

Compound,Potency,"activity, negative = toxicity"
O=[N+]([O-])c1ccc(-c2cnc(SCc3ccccc3Cl)[nH]2)cc1,"inconclusive [cytotoxic, single point]",
CN1C(=O)C(CC(=O)NC2CCCCC2)N(C)C1=O (centres undefined),"inconclusive [rising, single point]",
COc1ccccc1C(=O)Nc1ccc2c(c1)CN(C(=O)CSC)CC2,active: 10.3 µM,
Cc1cccc(C)c1NC(=O)C1C(c2ccc3c(c2)OCO3)=Nc2ccccc2N1C(=O)c1cccc2ccccc12 (centres undefined),inactive,
CC(C)(C)c1cc[n+](C2=C([O-])c3ccccc3C(=O)/C2=N\S(=O)(=O)c2cccs2)cc1,active: 13 µM,
CCCn1c(=N)n(CCOc2ccc(OC)cc2)c2ccccc21,"inconclusive [cytotoxic, single point]",
O=C(N/N=C/c1ccccc1Cl)c1[nH]c2ccc(Br)cc2c1-c1ccccc1,active: 0.461 µM,
CC(C)(C)C1CCC(=NNC(=O)C2COc3ccccc3O2)CC1 (centres undefined),"inconclusive [cytotoxic, single point]",
COC(=O)[C@@]12C[C@@H](CC(=O)NCC34CC5CC(CC(C5)C3)C4)C(=O)N(CCc3ccc(OC)c(OC)c3)C1=CCC(C)(C)C2,"inconclusive [cytotoxic, single point]",
CC(=O)c1cccc(NC(=O)Cc2ccc3c(c2)CCCC3)c1,,inactive: 9.08% [at 9.24 µM]
COc1ccccc1N(C)S(=O)(=O)c1ccc(C(=O)NCc2ccccc2CN2CCCC2)cc1,"inconclusive [cytotoxic, single point]",
O=C(NC1CCCCC1)C(c1ccnc2ccccc12)n1c(=O)c(-c2ccccc2)nc2ccccc21 (centres undefined),active: 11.6 µM,
CCn1c(SCC(=O)N2CCN(C(=O)c3ccco3)CC2)nnc1C(C)C,,inconclusive: 30.1%
c1ccc(-c2cn3nc(-c4ccccc4)sc3n2)cc1,inactive,
Cc1cc(NC(c2ccc(Cl)cc2)c2ccc3cccnc3c2O)no1 (centres undefined),"inconclusive [cytotoxic, full curve]",
Cc1ccc(-n2c(-c3ccccc3)c[n+]3c2CCC3)cc1,active: 5.8 µM,
S=C1NC2(CCCCC2)NN1c1ccccc1,"inconclusive [cytotoxic, partial curve]",
O=c1cc(/C=C/c2cccs2)[nH]c2ccccc12,active: 7.08 µM,
CC1CC(C)C(=NNC(N)=O)C(C(O)CC2CCC(=O)NC2=O)C1 (centres undefined),"inconclusive [cytotoxic, partial curve]",
C=C[C@@H]1c2cc(C)ccc2N(S(=O)(=O)c2ccc(C)cc2)[C@H](c2ccc(OC(C)=O)cc2)C1(C#N)C#N,active: 6.51 µM,
COCCCNCCOc1ccc(C(C)(C)c2ccccc2)cc1,"inconclusive [cytotoxic, single point]",
c1ccc(-c2cccc(-c3ccccn3)n2)nc1,active: 0.282 µM,
CC1Cc2ccccc2N1S(=O)(=O)c1cccc(C(=O)NC2CC2)c1 (centres undefined),"inconclusive [cytotoxic, single point]",
